According to PubChem BioAssay AID485294 (National Center for Advancing Translational Sciences (NCATS), 2010):
The whole screen tested about 370,000 compounds, of which about 150 (0.041%) were called active. Inconclusive results, whose numbers are uncertain, are shown with a selection of clear calls. Calls follow the shape of the dose curve; as a rule, active = well fitted inhibition curve with a large enough effect; inconclusive = small, poorly fitted or top-dose-only effect; inactive = flat fitted curve, though single readings scatter. No potency is given beside an inconclusive call; the fits are too rough.

The compounds below were run against Beta-lactamase (Escherichia coli (strain K12)) (UniProt P00811) (assay: qHTS Inhibitors of AmpC Beta-Lactamase (assay with detergent)). Conditions: AmpC hydrolysis of nitrocefin, absorbance 480 nm, 0.01% Triton; activity change, negative = inhibition: at 114 µM (top of the series).
Sequence of UniProt P00811 (P00811 whole entry, looked up): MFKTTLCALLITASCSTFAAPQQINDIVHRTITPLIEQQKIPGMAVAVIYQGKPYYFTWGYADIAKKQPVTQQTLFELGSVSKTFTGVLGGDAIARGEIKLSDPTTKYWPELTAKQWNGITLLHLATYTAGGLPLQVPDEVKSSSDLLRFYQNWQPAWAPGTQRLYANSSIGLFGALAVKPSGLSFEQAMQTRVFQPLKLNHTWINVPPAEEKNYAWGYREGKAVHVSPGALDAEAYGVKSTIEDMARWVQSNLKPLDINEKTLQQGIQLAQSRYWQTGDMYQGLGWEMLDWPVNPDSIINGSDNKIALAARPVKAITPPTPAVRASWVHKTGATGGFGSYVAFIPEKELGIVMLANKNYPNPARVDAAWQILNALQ
How it was run: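 20 mM phosphate pH 7.0 + 0.01% (detergent screen) or 0.0001% Triton X-100; 5.3 nM AmpC reagent; cpd preinc 15 min RT; nitrocefin (800 uM stock) to start; A480 q20 s × 4 min; Activity was normalised to no-enzyme and no-compound control wells.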
Also: nearly all actives have a fitted effect of over 25% in size.
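For activity change, negative = inhibition in this document: 0% = no-compound wells and -100% = no-enzyme wells.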
Potency is read from the fitted curve at half-maximal effect; tags tell the direction and shape of the fitted curve.

Structure (SMILES)	Potency	activity change, negative = inhibition
COc1cc(N)c(Cl)cc1C(=O)OCC(=O)NC1CCCC1	inconclusive [inhibitor, partial curve]	
O=C1NC(=O)C(=Cc2coc3ccccc3c2=O)C(=O)N1		inactive: -2.25%
CS(=O)(=O)c1ccc(C(=O)NCCN2C(=O)S/C(=C\c3cccnc3)C2=O)cc1[N+](=O)[O-]		inactive: -3.63%
CS(=O)(=O)Nc1ccc(C(=O)NCc2cccnc2)cc1	inconclusive [inhibitor, full curve, poor fit]	
COc1ccc(-c2nnc(SC(C)C(=O)Nc3c(C)n(C)n(-c4ccccc4)c3=O)o2)cc1 (stereo unspecified)	inconclusive [inhibitor, single point]	
C=Cc1cccc(NC(=O)c2ccc(NC(=O)c3ccco3)cc2)c1		inactive: -11.5%
COc1cccc2cc(/C(C)=N/NC(=O)c3ccco3)oc12	inconclusive [inhibitor, full curve]	
COc1ccc(OC)c(/C=C2\NC(=O)NC2=O)c1	inconclusive [inhibitor, full curve, poor fit]	
O=C(CN1C(=O)C2(SCC(=O)N2c2cccc(Cl)c2)c2ccccc21)NCCc1ccccc1 (stereo unspecified)		inactive: 2.81%
CCCCCC(=O)Nc1ccccc1N1CCN(c2ccccc2)CC1		inactive: -6.3%
Cc1cccc(NC(=O)/C(C#N)=C/c2ccc(Sc3ccccc3)o2)c1C	inconclusive [inhibitor, partial curve]	
O=C(CC1C(=O)NCCN1Cc1ccccn1)NCCc1ccccc1F (stereo unspecified)	inconclusive [inhibitor, single point]	
Cc1ccc(-n2c(=O)c3sc4ccccc4c3n(CC(=O)NC3CCCC3)c2=O)cc1C		inactive: -6.98%
O=C(/C=C1\SC(=O)N(CC(=O)Nc2ccc(Cl)cc2)C1=O)Nc1ccc(F)cc1	inconclusive [inhibitor, full curve]	
Cc1cc(Cl)ccc1N=c1ssnc1Cl		inactive: -6.64%
CCCOC(=O)C1=C(C)NC2=C(C(=O)CCC2)C1c1cc(OC)ccc1OC (stereo unspecified)	inconclusive [inhibitor, full curve, poor fit]	
Cc1nnc(NC(=O)C2C3C=CC(O3)C2C(=O)O)s1 (stereo unspecified)	inconclusive [inhibitor, partial curve]	
O=C(Nc1ccccc1C(=O)OC1CCOC1=O)c1ccco1 (stereo unspecified)	inconclusive [inhibitor, partial curve, poor fit]	
COc1ccc(N2CCN(CCNC(=O)c3nnc(Cc4c(F)cccc4Cl)o3)CC2)cc1	inconclusive [inhibitor, full curve, poor fit]	
CC(C)(C)NC(=O)CN(C(=O)CNS(=O)(=O)c1ccccc1)c1ccc2c(c1)OCCO2	inconclusive [inhibitor, full curve, poor fit]	
CC(C)NC(=O)[C@H](CSCc1ccccc1)N1Cc2ccccc2C1=O	inconclusive [inhibitor, partial curve]	
O=C(NCCS(=O)(=O)N1CCN(c2ccc(F)cc2)CC1)C(c1ccccc1)c1ccccc1		inactive: -2.15%

Structure (SMILES)	Potency	activity change, negative = inhibition
Cc1cccc(OCCC(=O)NCC(=O)Nc2cccc(C)c2C)c1	inconclusive [inhibitor, partial curve, poor fit]	
COc1cc(CCCN2CCNC[C@@H]2Cc2ccccc2)cc(OC)c1OC	inconclusive [inhibitor, full curve, poor fit]	
CCOC(=O)C(CC)n1nnc2sc(-c3ccccc3)cc2c1=O (stereo unspecified)		inactive: 9.63%
CCOC(=O)c1ccc(NC(=O)NC2CC3CCC(C2)N3Cc2nnnn2C(C)(C)C)cc1 (stereo unspecified)	inconclusive [inhibitor, full curve]	
Cc1ccc(/C(N)=N/OC(=O)c2ccc3c(c2)OCO3)cc1		inactive: -4.38%
Cc1nn(-c2ccccc2)c(C)c1-c1nnc(C(F)(F)F)o1	inconclusive [inhibitor, partial curve]	
Cc1ccc(S(=O)(=O)N2CCCCC2)cc1C(=O)N(CCc1ccccc1)Cc1ccccc1		inactive: -12.1%
CCc1ccccc1NC(=O)CSc1nncn2c1cc1oc(C)cc12		inactive: -4.25%
COCCOC(=O)C1=C(C)NC(=O)NC1c1c(Cl)nc2c(C)cccn2c1=O (stereo unspecified)	inconclusive [inhibitor, full curve, poor fit]	
Cc1cccc(C(=O)NCc2ccc(S(N)(=O)=O)cc2)c1[N+](=O)[O-]	inconclusive [inhibitor, full curve]	
CCc1ccccc1Nc1nn2c(=O)c3ccc(C(=O)NCc4ccccn4)cc3nc2s1	inconclusive [inhibitor, partial curve, poor fit]	
CSCC[C@H](NC(=O)[C@H](Cc1ccccc1)n1c(=O)[nH]c2ccccc2c1=O)C(=O)N1CCC(C(=O)O)CC1	inconclusive [inhibitor, partial curve, poor fit]	
O=C(COc1ccccc1Cl)NC(=O)NC1CCCCC1	inconclusive [inhibitor, single point]	
CCOC(=O)N1CCc2c(sc3c2c(=O)n(Cc2ccccc2)c(=O)n3CC(=O)Nc2ccc(F)cc2)C1		inactive: 10.3%
O=C(c1cc2c(=O)n3ccccc3nc2s1)N1CCc2ccccc2C1	inconclusive [inhibitor, single point]	
O=c1c(/C=N/O)coc2ccc3ccccc3c12	inconclusive [inhibitor, full curve, poor fit]	
O=C(CCNc1cc(Cl)cc(Cl)c1)c1cccs1	inconclusive [inhibitor, partial curve, poor fit]	
CCOC(=O)c1nn(-c2ccccc2)c(=O)cc1OCC(=O)Nc1cc(C)ccc1C	inconclusive [inhibitor, partial curve, poor fit]	
COC(=O)[C@H](C)NC(=O)Nc1ccc(S(N)(=O)=O)cc1	inconclusive [inhibitor, full curve, poor fit]	
Cc1nc(NC(C)c2ccccc2)c2c3c(sc2n1)CCC3 (stereo unspecified)	inconclusive [inhibitor, partial curve]	
O=C(CCCN1C(=O)/C(=C/c2cccc(Br)c2)SC1=S)Nc1ccccn1		inactive: -5.2%
Cc1csc(NC(=O)Nc2ccc(Cl)cc2)n1		inactive: -7.13%

Structure (SMILES)	Potency	activity change, negative = inhibition
CCn1cc(S(=O)(=O)N2CCc3ccccc3C2)cn1		inactive: 2.83%
Cc1ccc(S(=O)(=O)Nc2nc3ccccc3nc2Nc2cccc(S(=O)(=O)N3CCCC3)c2)cc1		inactive: -3.43%
CCN(C(=O)Cn1c(=O)oc2ccccc21)c1c(N)n(Cc2ccccc2)c(=O)[nH]c1=O	inconclusive [inhibitor, full curve, poor fit]	
O=C1CCC(=O)N1c1ccc(-c2nc3ccccc3s2)cc1	inconclusive [inhibitor, partial curve, poor fit]	
COC(=O)CCCC1=CC2=C(c3ccccc3)C(=O)C(C)(OC(=O)C3CCCC3)C(=O)C2=CN1CCN1CCOCC1 (stereo unspecified)		inactive: -2.34%
COCCCNc1ncnc2ccc(C)cc12	inconclusive [inhibitor, full curve, poor fit]	
Cn1cc(S(=O)(=O)N2CCc3ccccc32)cc1C(=O)Nc1ccc(Cl)cc1	inconclusive [inhibitor, full curve, poor fit]	
COc1ccc(C(C(=O)NC2CCCC2)N(C(=O)c2ccco2)c2cc3c(cc2C(C)=O)OCO3)cc1OC (stereo unspecified)	inconclusive [inhibitor, full curve, poor fit]	
CCOc1ccc(CCNC(=O)Cn2c(-c3cccs3)cc3ccccc32)cc1		inactive: 11.1%
COc1ccc(NC(=O)C2CCCO2)cc1 (stereo unspecified)	inconclusive [inhibitor, single point]	
CCOc1ccc(NC(=O)CN(Cc2ccccc2)S(=O)(=O)c2ccc3nc(C)sc3c2)cc1		inactive: -6.17%
COc1cc(C)c(Br)cc1S(=O)(=O)N1CCCC1	inconclusive [inhibitor, full curve]	
CN(C)c1ccc(/C=C2\C(=O)NC(=O)N(Cc3ccc(F)cc3)C2=O)cc1		inactive: 2.37%
CCOc1ccc(NC(=O)c2cc(SC)ccc2Cl)cc1	inconclusive [inhibitor, full curve, poor fit]	
CCOC(=O)N1CCN(Cc2nc3c(c(=O)n(C)c(=O)n3C)n2Cc2ccccc2)CC1	inconclusive [inhibitor, single point]	
COc1ccc(C=NCC2OCCc3ccccc32)cc1OC (stereo unspecified)	inconclusive [inhibitor, full curve]	
CC(Sc1nnc(C2CC2)n1C1CC1)C(=O)Nc1cccc(S(=O)(=O)N2CCOCC2)c1 (stereo unspecified)	inconclusive [inhibitor, partial curve, poor fit]	
COc1cc(-c2nnc(NC(=O)CCS(=O)(=O)c3ccc(F)cc3)o2)cc(OC)c1OC	inconclusive [inhibitor, partial curve, poor fit]	
O=C(NCC1CCCO1)C1CCC(=O)N1Cc1ccc(F)cc1 (stereo unspecified)	inconclusive [inhibitor, partial curve, poor fit]	
Cc1onc(-c2ccccc2)c1-c1n[nH]c(=S)n1-c1ccc(C(=O)O)cc1	inconclusive [inhibitor, full curve, poor fit]	
CN(Cc1ccon1)C(=O)C1CCC(=O)N(CCc2ccc(Cl)cc2)C1 (stereo unspecified)	inconclusive [inhibitor, full curve, poor fit]	
N/N=C(/Cc1nc2ccccc2[nH]1)c1ccc([N+](=O)[O-])cc1		inactive: -4.1%
